Measured values from publication PMC9911399, “Two distinct binding modes provide the RNA-binding protein RbFox with extraordinary sequence specificity”.
Substitutions are numbered along the chain they refer to; changes in the protein carry UniProt numbers. Some of the results follow.

T1: RBFOX1 RRM (Homo sapiens, UniProt Q9NWB1 109-208)
T1 sequence: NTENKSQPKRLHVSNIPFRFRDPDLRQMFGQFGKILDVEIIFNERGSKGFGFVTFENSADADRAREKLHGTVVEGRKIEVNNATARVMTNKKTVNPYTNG

B1: UAGAAGC (DNA:RNA)
RNA: GGGAGACCGGAAUUCAGAUUGUCCUAGAAGCUUAAAUCCCGUCGUAGCCACCA
DNA 1: CAATCTGAATTCCGGTCTCCC
DNA 2: TGGTGGCTACGACGGGATT
B2: AACGUUA (DNA:RNA)
RNA: B1 RNA with U25A, G27C, A28G, A29U, G30U, C31A
DNA 1: CAATCTGAATTCCGGTCTCCC
DNA 2: TGGTGGCTACGACGGGATT
B3: GUAACAC (DNA:RNA)
RNA: B1 RNA with U25G, A26U, G27A, A29C, G30A
DNA 1: CAATCTGAATTCCGGTCTCCC
DNA 2: TGGTGGCTACGACGGGATT
B4: CGUAUCG (DNA:RNA)
RNA: B1 RNA with U25C, A26G, G27U, A29U, G30C, C31G
DNA 1: CAATCTGAATTCCGGTCTCCC
DNA 2: TGGTGGCTACGACGGGATT
B5: UGUAUAA (DNA:RNA)
RNA: B1 RNA with A26G, G27U, A29U, G30A, C31A
DNA 1: CAATCTGAATTCCGGTCTCCC
DNA 2: TGGTGGCTACGACGGGATT
B6: CUGCACC (DNA:RNA)
RNA: B1 RNA with U25C, A26U, A28C, G30C
DNA 1: CAATCTGAATTCCGGTCTCCC
DNA 2: TGGTGGCTACGACGGGATT
B7: AGCUAAC (DNA:RNA)
RNA: B1 RNA with U25A, A26G, G27C, A28U, G30A
DNA 1: CAATCTGAATTCCGGTCTCCC
DNA 2: TGGTGGCTACGACGGGATT
B8: UGCUUAU (DNA:RNA)
RNA: B1 RNA with A26G, G27C, A28U, A29U, G30A, C31U
DNA 1: CAATCTGAATTCCGGTCTCCC
DNA 2: TGGTGGCTACGACGGGATT
B9: UAAUGUG (DNA:RNA)
RNA: B1 RNA with G27A, A28U, A29G, G30U, C31G
DNA 1: CAATCTGAATTCCGGTCTCCC
DNA 2: TGGTGGCTACGACGGGATT
B10: ACACGCA (DNA:RNA)
RNA: GGGAGACCGGAAUUCAGAUUGUCCACACGCAUUAAAUCCCGUCGUAGCCACCA
DNA 1: CAATCTGAATTCCGGTCTCCC
DNA 2: TGGTGGCTACGACGGGATT
B11: AUGGGAA (DNA:RNA)
RNA: B10 RNA with C26U, A27G, C28G, C30A
DNA 1: CAATCTGAATTCCGGTCTCCC
DNA 2: TGGTGGCTACGACGGGATT
B12: GUUAAUU (DNA:RNA)
RNA: B1 RNA with U25G, A26U, G27U, G30U, C31U
DNA 1: CAATCTGAATTCCGGTCTCCC
DNA 2: TGGTGGCTACGACGGGATT
B13: CGGUGGC (DNA:RNA)
RNA: B1 RNA with U25C, A26G, A28U, A29G
DNA 1: CAATCTGAATTCCGGTCTCCC
DNA 2: TGGTGGCTACGACGGGATT
B14: CCAUCUA (DNA:RNA)
RNA: B10 RNA with A25C, C28U, G29C, C30U
DNA 1: CAATCTGAATTCCGGTCTCCC
DNA 2: TGGTGGCTACGACGGGATT
B15: CCCGCUA (DNA:RNA)
RNA: B10 RNA with A25C, A27C, C28G, G29C, C30U
DNA 1: CAATCTGAATTCCGGTCTCCC
DNA 2: TGGTGGCTACGACGGGATT
B16: CCGCCUA (DNA:RNA)
RNA: B10 RNA with A25C, A27G, G29C, C30U
DNA 1: CAATCTGAATTCCGGTCTCCC
DNA 2: TGGTGGCTACGACGGGATT
B17: GGCACUA (DNA:RNA)
RNA: B10 RNA with A25G, C26G, A27C, C28A, G29C, C30U
DNA 1: CAATCTGAATTCCGGTCTCCC
DNA 2: TGGTGGCTACGACGGGATT
B18: CUUAUCU (DNA:RNA)
RNA: B10 RNA with A25C, C26U, A27U, C28A, G29U, A31U
DNA 1: CAATCTGAATTCCGGTCTCCC
DNA 2: TGGTGGCTACGACGGGATT
B19: UCGAGAA (DNA:RNA)
RNA: B10 RNA with A25U, A27G, C28A, C30A
DNA 1: CAATCTGAATTCCGGTCTCCC
DNA 2: TGGTGGCTACGACGGGATT
B20: UGGAUCC (DNA:RNA)
RNA: B1 RNA with A26G, A29U, G30C
DNA 1: CAATCTGAATTCCGGTCTCCC
DNA 2: TGGTGGCTACGACGGGATT
B21: AGCGCCA (DNA:RNA)
RNA: B10 RNA with C26G, A27C, C28G, G29C
DNA 1: CAATCTGAATTCCGGTCTCCC
DNA 2: TGGTGGCTACGACGGGATT
B22: GCAUGUA (DNA:RNA)
RNA: B10 RNA with A25G, C28U, C30U
DNA 1: CAATCTGAATTCCGGTCTCCC
DNA 2: TGGTGGCTACGACGGGATT
B23: AUGAUGU (DNA:RNA)
RNA: B1 RNA with U25A, A26U, A29U, C31U
DNA 1: CAATCTGAATTCCGGTCTCCC
DNA 2: TGGTGGCTACGACGGGATT
B24: UCCUACC (DNA:RNA)
RNA: B1 RNA with A26C, G27C, A28U, G30C
DNA 1: CAATCTGAATTCCGGTCTCCC
DNA 2: TGGTGGCTACGACGGGATT
B25: UACGGAU (DNA:RNA)
RNA: B1 RNA with G27C, A28G, A29G, G30A, C31U
DNA 1: CAATCTGAATTCCGGTCTCCC
DNA 2: TGGTGGCTACGACGGGATT
B26: ACUAGAU (DNA:RNA)
RNA: B10 RNA with A27U, C28A, C30A, A31U
DNA 1: CAATCTGAATTCCGGTCTCCC
DNA 2: TGGTGGCTACGACGGGATT
B27: ACGUGCU (DNA:RNA)
RNA: B10 RNA with A27G, C28U, A31U
DNA 1: CAATCTGAATTCCGGTCTCCC
DNA 2: TGGTGGCTACGACGGGATT
B28: CAGCGAC (DNA:RNA)
RNA: B1 RNA with U25C, A28C, A29G, G30A
DNA 1: CAATCTGAATTCCGGTCTCCC
DNA 2: TGGTGGCTACGACGGGATT
B29: UCUCACA (DNA:RNA)
RNA: B10 RNA with A25U, A27U, G29A
DNA 1: CAATCTGAATTCCGGTCTCCC
DNA 2: TGGTGGCTACGACGGGATT
B30: UUCCAGC (DNA:RNA)
RNA: B1 RNA with A26U, G27C, A28C
DNA 1: CAATCTGAATTCCGGTCTCCC
DNA 2: TGGTGGCTACGACGGGATT
B31: CCUUACC (DNA:RNA)
RNA: B10 RNA with A25C, A27U, C28U, G29A, A31C
DNA 1: CAATCTGAATTCCGGTCTCCC
DNA 2: TGGTGGCTACGACGGGATT

What follows are binders tested against T1, RBFOX1 RRM (assay: EMSA; HiTS-Eq, 1 nM pool, 10 min; buffer printed only for the single-RNA assays: 10 mM Tris pH 7.5, 150 mM NaCl, 3.4 mM EDTA, 0.001% NP-40, 30 C). Conditions: tags: His6 N-terminal (pET28a); label: 5' 32P.
Summary of the method: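 These values rest on relative association constants, computed from read-count changes of each RNA species versus the control reaction and normalised to the cognate motif. Reads came from free RNA recovered by 8% native PAGE after purified RbFox RRM (wild type or mutant) at increasing concentrations was equilibrated for 10 min in 50 µL with 1 nM of a 5′-radiolabelled pool with 7 randomized nucleotides and DNA-annealed flanks.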
B1 was tested, and the binding signal was 0.0129 KA relative to UGCAUGU.
For B2, the binding signal was 0.00187 KA relative to UGCAUGU.
In the case of B3, the binding signal is reported as 0.00539 KA relative to UGCAUGU.
For B4, the binding signal was 0.0121 KA relative to UGCAUGU.
B5 was tested, and the binding signal was 0.0154 KA relative to UGCAUGU.
B6 was tested, and the binding signal was 0.0128 KA relative to UGCAUGU.
B7 was tested, and the binding signal was 0.00665 KA relative to UGCAUGU.
For B8, the binding signal was 0.0138 KA relative to UGCAUGU.
B9 was tested, and the binding signal was 0.0261 KA relative to UGCAUGU.
For B10, the binding signal was 0.00371 KA relative to UGCAUGU.
For B11, the binding signal was 0.00671 KA relative to UGCAUGU.
With B12 the binding signal was 0.00741 KA relative to UGCAUGU.
For B13, the binding signal was 0.0225 KA relative to UGCAUGU.
For B14, the binding signal was 0.00323 KA relative to UGCAUGU.
For B15, the binding signal was 0.00302 KA relative to UGCAUGU.
With B16 the binding signal was 0.00412 KA relative to UGCAUGU.
In the case of B17, the binding signal is reported as 0.00878 KA relative to UGCAUGU.
In the case of B18, the binding signal is reported as 0.00414 KA relative to UGCAUGU.
For B19, the binding signal was 0.0126 KA relative to UGCAUGU.
In the case of B20, the binding signal is reported as 0.0229 KA relative to UGCAUGU.
In the case of B21, the binding signal is reported as 0.0058 KA relative to UGCAUGU.
In the case of B22, the binding signal is reported as 0.473 KA relative to UGCAUGU.
With B23 the binding signal was 0.0132 KA relative to UGCAUGU.
For B24, the binding signal was 0.00636 KA relative to UGCAUGU.
For B25, the binding signal was 0.00757 KA relative to UGCAUGU.
With B26 the binding signal was 0.00405 KA relative to UGCAUGU.
In the case of B27, the binding signal is reported as 0.0143 KA relative to UGCAUGU.
With B28 the binding signal was 0.00211 KA relative to UGCAUGU.
With B29 the binding signal was 0.00139 KA relative to UGCAUGU.
For B30, the binding signal was 0.00485 KA relative to UGCAUGU.
In the case of B31, the binding signal is reported as 0.00281 KA relative to UGCAUGU.
